Laboratory results from the supplement of paper PMC6206098.
± gives the uncertainty stated by the source. The sequences are guide strands of siRNAs; only the seed at positions 2 to 7 varies.

Key:
H460 = assay: cell viability relative to lipid-only control; higher = less toxic; settings: concentration: 10 nM; 96 h; Homo sapiens
HeyA8 = assay: as above; settings: concentration: 10 nM; 96 h; Homo sapiens
M565 = assay: as above; settings: concentration: 10 nM; 96 h; Mus musculus
3LL = assay: cell viability relative to siNT1 control; HeyA8 human ovarian and H460 human lung cancer; M565 mouse liver and 3LL mouse lung cancer; siNT1 is a non-toxic control siRNA; higher = less toxic; settings: concentration: 10 nM; 96 h; Mus musculus
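Throughout, for cell viability relative to lipid-only control: reverse lipid transfection in 384-well plates, in triplicate, of duplexes on a non-toxic 19mer backbone with passenger strand 2′-O-methylated at positions 1 and 2, luminescence viability read-out.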
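Throughout, for cell viability relative to siNT1 control: Luminescence-based viability of cells reverse transfected in 384-well plates with lipid-complexed siRNAs built on a non-toxic 19mer backbone whose passenger strand carries 2′-O-methyl groups at positions 1 and 2, triplicates.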

Sequence | cell viability (H460) [%] | cell viability (HeyA8) [%] | cell viability (M565) [%] | cell viability (3LL) [%]
UUGCAAUACAUGUAAACCAAA | 65 ± 3.8 | 85.2 ± 5.3 | 111 ± 20 | 80.8 ± 2.4
UCCGACAACAUGUAAACCAAA | 73.2 ± 19 | 83.5 ± 2.9 | 87.2 ± 8.5 | 110 ± 20
UAUGAUUACAUGUAAACCAAA | 78.3 ± 14 | 108 ± 6.1 | 102 ± 16 | 108 ± 5.8
UCAACGCACAUGUAAACCAAA | 74.1 ± 6.3 | 56.8 ± 8 | 64 ± 6.2 | 89.3 ± 16
UAGCUUGACAUGUAAACCAAA | 69 ± 12 | 57.1 ± 3.3 | 59.1 ± 10 | 58.7 ± 7
UCUUGAGACAUGUAAACCAAA | 57.8 ± 7.7 | 79.2 ± 8.1 | 55.5 ± 5.8 | 93.2 ± 15
UUAAAAAACAUGUAAACCAAA | 75.5 ± 5.8 | 98.5 ± 5.7 | 100 ± 23 | 97.5 ± 7.7
UCUGAUGACAUGUAAACCAAA | 49.9 ± 5.7 | 87.5 ± 10 | 56.5 ± 16 | 90.5 ± 12
UUCUGGCACAUGUAAACCAAA | 22.1 ± 3.1 | 24.7 ± 4.9 | 30 ± 9.2 | 8.9 ± 0.63
UGGUUUCACAUGUAAACCAAA | 94.9 ± 8.7 | 70.7 ± 6.3 | 68.3 ± 12 | 90.6 ± 7.8
UAACCUGACAUGUAAACCAAA | 64.1 ± 4.8 | 59.5 ± 7.1 | 69.6 ± 8.3 | 100 ± 2.8
UGUACAUACAUGUAAACCAAA | 69.1 ± 20 | 76.6 ± 10 | 90.6 ± 24 | 81.31 ± 0.23
UUCCCUAACAUGUAAACCAAA | 80.6 ± 8.6 | 94.8 ± 3.6 | 87.7 ± 11 | 101 ± 12
UGGGUCUACAUGUAAACCAAA | 19.8 ± 2.4 | 7.4 ± 1.2 | 16 ± 2.9 | 17.3 ± 3.2
UCCGAUGACAUGUAAACCAAA | 65.4 ± 19 | 88.5 ± 9.2 | 66.2 ± 14 | 101 ± 23
UGAGUCUACAUGUAAACCAAA | 53.6 ± 9.5 | 50.8 ± 6.2 | 16.2 ± 2.2 | 55.5 ± 13
UUACCACACAUGUAAACCAAA | 35.6 ± 3.2 | 63.5 ± 2.2 | 41.5 ± 8.4 | 48.3 ± 5
UCCUAUUACAUGUAAACCAAA | 83.5 ± 7.8 | 80.7 ± 5.5 | 82.3 ± 9 | 79.7 ± 21
UCUACAAACAUGUAAACCAAA | 60.3 ± 3.3 | 85 ± 9.9 | 65.8 ± 7.7 | 92.5 ± 10
UGUAUGUACAUGUAAACCAAA | 66.2 ± 11 | 27 ± 2.6 | 21.2 ± 2.7 | 8.25 ± 3.2
UGUAAAAACAUGUAAACCAAA | 76.2 ± 14 | 88.2 ± 4.2 | 68.9 ± 2.6 | 92.5 ± 8.2
UUUUCCAACAUGUAAACCAAA | 81.4 ± 17 | 83.8 ± 5.1 | 83.1 ± 13 | 92.1 ± 8.2

Sequence | cell viability (H460) [%] | cell viability (HeyA8) [%] | cell viability (M565) [%] | cell viability (3LL) [%]
UUUCAUUACAUGUAAACCAAA | 37.3 ± 12 | 82.9 ± 8.6 | 81.8 ± 6.4 | 98.6 ± 7
UAUUACUACAUGUAAACCAAA | 61.4 ± 9.1 | 74.7 ± 5.8 | 68.2 ± 11 | 103 ± 18
UUAGUGAACAUGUAAACCAAA | 70.5 ± 10 | 91.2 ± 5.4 | 80.2 ± 2.5 | 84.4 ± 10
UAGCCCGACAUGUAAACCAAA | 61.4 ± 5.9 | 71.5 ± 6.4 | 14.5 ± 3.9 | 60 ± 16
UCGCAGGACAUGUAAACCAAA | 52.5 ± 8 | 68.5 ± 7 | 29.9 ± 3.2 | 69.6 ± 12
UACCUGAACAUGUAAACCAAA | 63.9 ± 1.9 | 66.1 ± 4.6 | 83.4 ± 14 | 84.4 ± 2.9
UCCUAUAACAUGUAAACCAAA | 77.6 ± 13 | 94.3 ± 3.1 | 80.8 ± 15 | 96.6 ± 24
UUAGUAGACAUGUAAACCAAA | 73.8 ± 14 | 68.2 ± 6.4 | 98 ± 9.1 | 99 ± 9.8
UUGUUAUACAUGUAAACCAAA | 63.9 ± 4.3 | 71.7 ± 7.3 | 50.6 ± 14 | 53.6 ± 6
UGAGAUGACAUGUAAACCAAA | 69.6 ± 15 | 78.1 ± 4.9 | 48.9 ± 7.3 | 83.9 ± 12
UAAUGAGACAUGUAAACCAAA | 82.7 ± 9.3 | 90.9 ± 7.6 | 79 ± 15 | 81.6 ± 5
UGCGCACACAUGUAAACCAAA | 59.8 ± 4.3 | 58.6 ± 6.4 | 54.6 ± 1.6 | 55.8 ± 2.5
UAUAAUAACAUGUAAACCAAA | 83 ± 22 | 98.9 ± 9.1 | 77.5 ± 9.7 | 100 ± 14
UCUUAUAACAUGUAAACCAAA | 59 ± 9.2 | 87.3 ± 7.2 | 76.2 ± 6.5 | 97.6 ± 16
UGCAACUACAUGUAAACCAAA | 44.4 ± 4 | 46.3 ± 2.7 | 31.4 ± 13 | 9.16 ± 4.3
UUUAUGAACAUGUAAACCAAA | 95.2 ± 4.2 | 93.5 ± 8.2 | 98.7 ± 15 | 99.8 ± 12
UUCUGAGACAUGUAAACCAAA | 60.8 ± 4.4 | 96 ± 3.2 | 82.2 ± 5 | 72.5 ± 6.6
UACAGACACAUGUAAACCAAA | 37.4 ± 6.6 | 8.9 ± 1.7 | 10.7 ± 3.4 | 14.8 ± 2.5
UGGCAAUACAUGUAAACCAAA | 65.4 ± 15 | 51.8 ± 5.9 | 18.1 ± 2.1 | 54.1 ± 8
UGUGAGUACAUGUAAACCAAA | 23.7 ± 2.5 | 14.6 ± 2.3 | 3.62 ± 0.4 | 7.44 ± 1.9
UGGUAGCACAUGUAAACCAAA | 14.7 ± 0.77 | 25.2 ± 3.5 | 17.8 ± 2.7 | 26.1 ± 1.5
UUGUGUUACAUGUAAACCAAA | 71.9 ± 13 | 73.8 ± 3.9 | 102 ± 14 | 72.5 ± 5.9
